From PubChem BioAssay AID504466 (National Center for Advancing Translational Sciences (NCATS), 2011)
About 4,200 (1.3%) of roughly 330,000 compounds were called active. The shares of active, inactive and inconclusive entries below differ from those in the screen. Calls follow the shape of the dose curve; as a rule, active = well fitted activation curve with a large enough effect; inconclusive = small, poorly fitted or top-dose-only effect; inactive = no such curve, though single readings can be large or run the other way. Potencies beside an inconclusive call are fits to weak or partial responses and may not hold up.

experiment: qHTS screen for small molecules that induce genotoxicity in human embryonic kidney (HEK293T) cells expressing luciferase-tagged ELG1; details: HEK293T ELG1-luciferase reporter, luminescence, 16 h; series mostly up to 46 µM; also: nearly all actives have a fitted effect of over 60% in size
How it was run: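 Luminescence read-out: rising ELG1-luciferase signal, reflecting elevated ELG1 protein under genetic stress, flags genotoxic compounds. Cells were treated for 16 hr at 37 °C before ONE-Glo detection.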
Potency is read from the fitted curve at half-maximal effect; tags tell the direction and shape of the fitted curve.

| Compound | Potency |
| --- | --- |
| Nc1ccc(-c2ncc(-c3ccccc3)o2)cc1 | inconclusive: 18.3 µM [activator, partial curve] |
| Cc1ccc(NC(=O)C(=O)Nc2ccccn2)cc1 | inconclusive: 0.291 µM [activator, full curve] |
| CCCCC(=O)Nc1ccc(NC(=O)c2ccc(C)c([N+](=O)[O-])c2)cc1OC | inactive |
| O=C(CCN1C(=O)C2C3CCC(C3)C2C1=O)OCC(=O)c1ccccc1 (centres undefined) | inactive |
| CCN1CCN(c2ccc(S(=O)(=O)N3CCCCC3)cc2NC(=O)c2sccc2C)CC1 | inactive |
| Cc1c(C(=O)c2ccccc2)oc2ccc3ccccc3c12 | inconclusive: 9.2 µM [activator, partial curve] |
| COc1ccc(S(=O)(=O)N2CCCCC2)cc1NS(=O)(=O)c1ccccc1F | inactive |
| N#Cc1c(/N=C/N2CCCC2)oc(-c2ccccc2)c1-c1ccccc1 | inconclusive: 4.61 µM [activator, single point] |
| O=C(CSC1=NCCS1)c1ccc(Cl)cc1 | inconclusive: 25.9 µM [activator, partial curve, poor fit] |
| CCCCOC(=O)Nc1ccc(C(N)=O)cc1 | active: 23.1 µM |
| COC(=O)C(C)N1C(=O)S/C(=C\c2ccc(-c3ccc(C(=O)O)cc3C)o2)C1=O (centres undefined) | inconclusive: 16.4 µM [activator, partial curve, poor fit] |
| Cc1ccnc(NC(=O)Nc2ccc3c(c2)OCO3)c1 | inconclusive: 2.06 µM [activator, partial curve] |
| Cc1ccc(-c2nnc(SCC(=O)Nc3ccccc3F)o2)cc1 | active: 0.164 µM |
| CCOc1ccc(S(=O)(=O)N2c3ccccc3CC2C)cc1 (centres undefined) | inconclusive: 18.4 µM [activator, partial curve, poor fit] |
| CC(=O)Nc1sc2c(c1C(N)=O)CCC2 | inactive |
| C(=N\Nc1nc2ccccc2s1)/c1cccs1 | inconclusive: 0.651 µM [activator, full curve] |
| CN(CC(=O)NCc1ccc(F)cc1)Cc1cccc(Cl)c1 | inactive |
| Cc1ccc(C(=O)NCN2CCN(c3ccccc3)CC2)cc1 | inactive |
| CC(=O)Nc1cccc(NC(=O)CCCC(=O)O)c1 | inactive |
| Cc1ccnc(NC(=S)NC(=O)c2cncc(Br)c2)c1 | inconclusive: 18.4 µM [activator, partial curve, poor fit] |
| Cc1ccc(O)c(C2=Nc3ccccc3C2(C)C)c1 | inconclusive: 16.4 µM [activator, partial curve, poor fit] |
| O=C(CSc1ccccc1)NCc1ccc(F)cc1 | inconclusive: 18.3 µM [activator, partial curve, poor fit] |
| N#C/C(=N\Nc1cccc(F)c1)C(=N)N1CCCCCC1 | inconclusive: 16.4 µM [activator, single point] |
| Cc1ccc(CNC(=O)Nc2ccc(Cl)cc2)cc1 | inconclusive: 20.6 µM [activator, partial curve, poor fit] |
| COc1ccc(-c2cn(Cc3ccc(C)cc3)nn2)cc1 | inconclusive: 18.3 µM [activator, partial curve] |

| Compound | Potency |
| --- | --- |
| CCc1ccc(C(=O)NNc2ccc(F)cc2F)cc1 | inconclusive: 16.4 µM [activator, partial curve, poor fit] |
| COc1cc(/C=C2\NC(=S)NC2=O)ccc1OCc1cccc(C(=O)O)c1 | active: 20.6 µM |
| CCOc1cc(S(=O)(=O)N2CCCCC2)ccc1F | inactive |
| CCNC(=O)CN(Cc1ccccc1)S(=O)(=O)c1ccccc1 | active: 23.1 µM |
| CC(=O)NC(=S)Nc1sc2c(c1C(N)=O)CCC(C)C2 (centres undefined) | inconclusive: 13 µM [activator, partial curve] |
| Cc1nnc2ccc(-c3ccc(NC(=O)c4cccnc4Cl)cc3)nn12 | inconclusive: 7.3 µM [activator, partial curve, poor fit] |
| COc1ccc(C(=O)O/N=C(\N)c2ccccn2)c(OC)c1 | active: 1.46 µM |
| c1ccc2c(c1)NC1(CCCCC1)n1c-2nc2ccccc21 | inconclusive: 16.4 µM [activator, partial curve] |
| CS(=O)(=O)c1ccc(S(=O)CC(=O)Oc2ccc(Cl)cc2)c([N+](=O)[O-])c1 (centres undefined) | inconclusive: 6.51 µM [activator, full curve, poor fit] |
| CC(=O)Nc1cccc(NC(=S)Nc2ccc(F)cc2F)c1 | inactive |
| Cc1cc(NC(=O)c2ccccc2)n(-c2nc3ccccc3[nH]2)n1 | inconclusive: 32.6 µM [activator, partial curve, poor fit] |
| CCC(=O)Nc1ccc(NC(=O)C23CC4CC(CC(C4)C2)C3)cn1 | inconclusive: 16.4 µM [activator, partial curve, poor fit] |
| COCCNC(=O)c1ccc2c(c1)ncn2-c1ccc(F)c(F)c1 | inconclusive: 20.6 µM [activator, single point] |
| N#Cc1nc(-c2ccccc2F)oc1N1CCCC1 | inconclusive: 20.6 µM [activator, single point] |
| O=C(Nc1nc2ccccc2[nH]1)C12CC3CC(CC(C3)C1)C2 | inconclusive: 2.06 µM [activator, partial curve] |
| Cc1cc(Cl)cc2sc(NC(=O)c3ccco3)nc12 | active: 2.91 µM |
| O=C(CSc1ccc(-c2cccnc2)nn1)Nc1ccc(F)c(F)c1 | inactive |
| COc1ccc(C(=O)Nc2ccc(C(F)(F)F)n(C)c2=O)cc1 | inconclusive: 11.6 µM [activator, partial curve, poor fit] |
| COCCNC(=O)c1ccccc1NC(=O)c1ccccc1SC | inactive |
| CN(C1CCCCC1)S(=O)(=O)c1ccc(-c2ccccn2)s1 | inactive |
| COc1cccc(/C=N/Nc2ccc(Cl)nn2)c1 | inconclusive: 14.6 µM [activator, partial curve, poor fit] |
| CC(C)(C)OC(=O)N/N=C\C=C\c1ccc2c(c1)OCO2 | inconclusive: 9.2 µM [activator, partial curve] |
| O=C(COc1ccc(F)cc1)NCCCn1ccnc1 | inactive |
| CC1CCN(C(=O)c2cc(-c3ccco3)on2)CC1 | active: 16.4 µM |
